# Substitutions are numbered along the chain they refer to; changes in the protein carry UniProt numbers. Some of the results follow.
# T1: RBFOX1 RRM (Homo sapiens, UniProt Q9NWB1 109-208)
# T1 sequence: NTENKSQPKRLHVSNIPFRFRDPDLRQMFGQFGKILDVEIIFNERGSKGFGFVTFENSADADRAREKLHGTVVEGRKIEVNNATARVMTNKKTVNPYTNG
# B1: UGCACCC (DNA:RNA)
# RNA: GGGAGACCGGAAUUCAGAUUGUCCUGCACCCUUAAAUCCCGUCGUAGCCACCA
# DNA 1: CAATCTGAATTCCGGTCTCCC
# DNA 2: TGGTGGCTACGACGGGATT
# B2: GGGGGCG (DNA:RNA)
# RNA: B1 RNA with U25G, C27G, A28G, C29G, C31G
# DNA 1: CAATCTGAATTCCGGTCTCCC
# DNA 2: TGGTGGCTACGACGGGATT
# B3: GACACCU (DNA:RNA)
# RNA: B1 RNA with U25G, G26A, C31U
# DNA 1: CAATCTGAATTCCGGTCTCCC
# DNA 2: TGGTGGCTACGACGGGATT
# B4: CAGCUUC (DNA:RNA)
# RNA: B1 RNA with U25C, G26A, C27G, A28C, C29U, C30U
# DNA 1: CAATCTGAATTCCGGTCTCCC
# DNA 2: TGGTGGCTACGACGGGATT
# B5: GUCCCUU (DNA:RNA)
# RNA: B1 RNA with U25G, G26U, A28C, C30U, C31U
# DNA 1: CAATCTGAATTCCGGTCTCCC
# DNA 2: TGGTGGCTACGACGGGATT
# B6: GCGUUAU (DNA:RNA)
# RNA: GGGAGACCGGAAUUCAGAUUGUCCGCGUUAUUUAAAUCCCGUCGUAGCCACCA
# DNA 1: CAATCTGAATTCCGGTCTCCC
# DNA 2: TGGTGGCTACGACGGGATT
# B7: GAAGCAG (DNA:RNA)
# RNA: B6 RNA with C26A, G27A, U28G, U29C, U31G
# DNA 1: CAATCTGAATTCCGGTCTCCC
# DNA 2: TGGTGGCTACGACGGGATT
# B8: GUGCACA (DNA:RNA)
# RNA: B6 RNA with C26U, U28C, U29A, A30C, U31A
# DNA 1: CAATCTGAATTCCGGTCTCCC
# DNA 2: TGGTGGCTACGACGGGATT
# B9: GGGUAUC (DNA:RNA)
# RNA: B6 RNA with C26G, U29A, A30U, U31C
# DNA 1: CAATCTGAATTCCGGTCTCCC
# DNA 2: TGGTGGCTACGACGGGATT
# B10: GGUUCUG (DNA:RNA)
# RNA: B6 RNA with C26G, G27U, U29C, A30U, U31G
# DNA 1: CAATCTGAATTCCGGTCTCCC
# DNA 2: TGGTGGCTACGACGGGATT
# B11: UAUCUAC (DNA:RNA)
# RNA: B6 RNA with G25U, C26A, G27U, U28C, U31C
# DNA 1: CAATCTGAATTCCGGTCTCCC
# DNA 2: TGGTGGCTACGACGGGATT
# B12: CUAAGAA (DNA:RNA)
# RNA: B6 RNA with G25C, C26U, G27A, U28A, U29G, U31A
# DNA 1: CAATCTGAATTCCGGTCTCCC
# DNA 2: TGGTGGCTACGACGGGATT
# B13: UUAACGC (DNA:RNA)
# RNA: B1 RNA with G26U, C27A, C30G
# DNA 1: CAATCTGAATTCCGGTCTCCC
# DNA 2: TGGTGGCTACGACGGGATT
# B14: UUACCGG (DNA:RNA)
# RNA: B1 RNA with G26U, C27A, A28C, C30G, C31G
# DNA 1: CAATCTGAATTCCGGTCTCCC
# DNA 2: TGGTGGCTACGACGGGATT
# B15: AUUAACC (DNA:RNA)
# RNA: B1 RNA with U25A, G26U, C27U, C29A
# DNA 1: CAATCTGAATTCCGGTCTCCC
# DNA 2: TGGTGGCTACGACGGGATT
# B16: CCUCAAC (DNA:RNA)
# RNA: B6 RNA with G25C, G27U, U28C, U29A, U31C
# DNA 1: CAATCTGAATTCCGGTCTCCC
# DNA 2: TGGTGGCTACGACGGGATT
# B17: ACUCCGG (DNA:RNA)
# RNA: B6 RNA with G25A, G27U, U28C, U29C, A30G, U31G
# DNA 1: CAATCTGAATTCCGGTCTCCC
# DNA 2: TGGTGGCTACGACGGGATT
# B18: AAUCUAC (DNA:RNA)
# RNA: B6 RNA with G25A, C26A, G27U, U28C, U31C
# DNA 1: CAATCTGAATTCCGGTCTCCC
# DNA 2: TGGTGGCTACGACGGGATT
# B19: GCUGCGG (DNA:RNA)
# RNA: B6 RNA with G27U, U28G, U29C, A30G, U31G
# DNA 1: CAATCTGAATTCCGGTCTCCC
# DNA 2: TGGTGGCTACGACGGGATT
# B20: ACUAGAA (DNA:RNA)
# RNA: B6 RNA with G25A, G27U, U28A, U29G, U31A
# DNA 1: CAATCTGAATTCCGGTCTCCC
# DNA 2: TGGTGGCTACGACGGGATT
# B21: UUAGGUA (DNA:RNA)
# RNA: B1 RNA with G26U, C27A, A28G, C29G, C30U, C31A
# DNA 1: CAATCTGAATTCCGGTCTCCC
# DNA 2: TGGTGGCTACGACGGGATT
# B22: CUGCAGC (DNA:RNA)
# RNA: B6 RNA with G25C, C26U, U28C, U29A, A30G, U31C
# DNA 1: CAATCTGAATTCCGGTCTCCC
# DNA 2: TGGTGGCTACGACGGGATT
# B23: UGAGCUC (DNA:RNA)
# RNA: B1 RNA with C27A, A28G, C30U
# DNA 1: CAATCTGAATTCCGGTCTCCC
# DNA 2: TGGTGGCTACGACGGGATT
# B24: CAGACGA (DNA:RNA)
# RNA: B1 RNA with U25C, G26A, C27G, C30G, C31A
# DNA 1: CAATCTGAATTCCGGTCTCCC
# DNA 2: TGGTGGCTACGACGGGATT
# B25: ACCGAGA (DNA:RNA)
# RNA: B6 RNA with G25A, G27C, U28G, U29A, A30G, U31A
# DNA 1: CAATCTGAATTCCGGTCTCCC
# DNA 2: TGGTGGCTACGACGGGATT
# B26: GACAUGU (DNA:RNA)
# RNA: B6 RNA with C26A, G27C, U28A, A30G
# DNA 1: CAATCTGAATTCCGGTCTCCC
# DNA 2: TGGTGGCTACGACGGGATT
# B27: CCUGCGG (DNA:RNA)
# RNA: B6 RNA with G25C, G27U, U28G, U29C, A30G, U31G
# DNA 1: CAATCTGAATTCCGGTCTCCC
# DNA 2: TGGTGGCTACGACGGGATT
# B28: CAAAAAU (DNA:RNA)
# RNA: B6 RNA with G25C, C26A, G27A, U28A, U29A
# DNA 1: CAATCTGAATTCCGGTCTCCC
# DNA 2: TGGTGGCTACGACGGGATT
# B29: GGAUCAU (DNA:RNA)
# RNA: B6 RNA with C26G, G27A, U29C
# DNA 1: CAATCTGAATTCCGGTCTCCC
# DNA 2: TGGTGGCTACGACGGGATT
# B30: CGGUUGG (DNA:RNA)
# RNA: B6 RNA with G25C, C26G, A30G, U31G
# DNA 1: CAATCTGAATTCCGGTCTCCC
# DNA 2: TGGTGGCTACGACGGGATT
# B31: AAGCGUA (DNA:RNA)
# RNA: B6 RNA with G25A, C26A, U28C, U29G, A30U, U31A
# DNA 1: CAATCTGAATTCCGGTCTCCC
# DNA 2: TGGTGGCTACGACGGGATT
# Biological target: T1, RBFOX1 RRM
# Test: EMSA; HiTS-Eq, 1 nM pool, 10 min; buffer printed only for the single-RNA assays: 10 mM Tris pH 7.5, 150 mM NaCl, 3.4 mM EDTA, 0.001% NP-40, 30 C
# Settings: tags: His6 N-terminal (pET28a); label: 5' 32P
# Summary of the method: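 Purified RbFox RRM (wild type or mutant) was equilibrated for 10 min in 50 µL with 1 nM of a 5′-radiolabelled pool of RNA with 7 randomized nucleotides, its flanks annealed to DNA oligonucleotides, across increasing protein concentrations. Free RNA was separated by 8% native PAGE, excised, reverse-transcribed, PCR-barcoded and sequenced on an Illumina HiSeq 2500. Relative association constants came from read-count changes of each variant against the control reaction, normalised to the cognate motif.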
row,Binder,binding signal
1,B1,0.0142 KA relative to UGCAUGU
2,B2,0.022 KA relative to UGCAUGU
3,B3,0.0027 KA relative to UGCAUGU
4,B4,0.0104 KA relative to UGCAUGU
5,B5,0.00613 KA relative to UGCAUGU
6,B6,0.00645 KA relative to UGCAUGU
7,B7,0.013 KA relative to UGCAUGU
8,B8,0.0205 KA relative to UGCAUGU
9,B9,0.0144 KA relative to UGCAUGU
10,B10,0.0284 KA relative to UGCAUGU
11,B11,0.00975 KA relative to UGCAUGU
12,B12,0.00541 KA relative to UGCAUGU
13,B13,0.00855 KA relative to UGCAUGU
14,B14,0.00324 KA relative to UGCAUGU
15,B15,0.000422 KA relative to UGCAUGU
16,B16,0.0015 KA relative to UGCAUGU

row,Binder,binding signal
1,B17,0.00568 KA relative to UGCAUGU
2,B18,0.00361 KA relative to UGCAUGU
3,B19,0.0195 KA relative to UGCAUGU
4,B20,0.00689 KA relative to UGCAUGU
5,B21,0.013 KA relative to UGCAUGU
6,B22,0.0146 KA relative to UGCAUGU
7,B23,0.0137 KA relative to UGCAUGU
8,B24,0.00706 KA relative to UGCAUGU
9,B25,0.00587 KA relative to UGCAUGU
10,B26,0.0153 KA relative to UGCAUGU
11,B27,0.0125 KA relative to UGCAUGU
12,B28,0.000541 KA relative to UGCAUGU
13,B29,0.00794 KA relative to UGCAUGU
14,B30,0.0172 KA relative to UGCAUGU
15,B31,0.00823 KA relative to UGCAUGU
